# From publication PMC4336329 (PLoS ONE, 2015)
# Hit rate of the full screen: of about 310,000 compounds, about 14,000 (4.5%) showed an effect of 50% or more. Effects have a minus sign here. This is one part of the list.
# Molecular target: human ether-à-go-go-related gene (hERG) potassium channel (human, UniProt Q12809)
# Assay: primary screen, population patch clamp on CHO cells stably expressing hERG
# 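Further: peak tail current of the secondary pulse compared with the same well before compound.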
# Chain of human ether-à-go-go-related gene (hERG) potassium channel (Q12809 whole entry, looked up): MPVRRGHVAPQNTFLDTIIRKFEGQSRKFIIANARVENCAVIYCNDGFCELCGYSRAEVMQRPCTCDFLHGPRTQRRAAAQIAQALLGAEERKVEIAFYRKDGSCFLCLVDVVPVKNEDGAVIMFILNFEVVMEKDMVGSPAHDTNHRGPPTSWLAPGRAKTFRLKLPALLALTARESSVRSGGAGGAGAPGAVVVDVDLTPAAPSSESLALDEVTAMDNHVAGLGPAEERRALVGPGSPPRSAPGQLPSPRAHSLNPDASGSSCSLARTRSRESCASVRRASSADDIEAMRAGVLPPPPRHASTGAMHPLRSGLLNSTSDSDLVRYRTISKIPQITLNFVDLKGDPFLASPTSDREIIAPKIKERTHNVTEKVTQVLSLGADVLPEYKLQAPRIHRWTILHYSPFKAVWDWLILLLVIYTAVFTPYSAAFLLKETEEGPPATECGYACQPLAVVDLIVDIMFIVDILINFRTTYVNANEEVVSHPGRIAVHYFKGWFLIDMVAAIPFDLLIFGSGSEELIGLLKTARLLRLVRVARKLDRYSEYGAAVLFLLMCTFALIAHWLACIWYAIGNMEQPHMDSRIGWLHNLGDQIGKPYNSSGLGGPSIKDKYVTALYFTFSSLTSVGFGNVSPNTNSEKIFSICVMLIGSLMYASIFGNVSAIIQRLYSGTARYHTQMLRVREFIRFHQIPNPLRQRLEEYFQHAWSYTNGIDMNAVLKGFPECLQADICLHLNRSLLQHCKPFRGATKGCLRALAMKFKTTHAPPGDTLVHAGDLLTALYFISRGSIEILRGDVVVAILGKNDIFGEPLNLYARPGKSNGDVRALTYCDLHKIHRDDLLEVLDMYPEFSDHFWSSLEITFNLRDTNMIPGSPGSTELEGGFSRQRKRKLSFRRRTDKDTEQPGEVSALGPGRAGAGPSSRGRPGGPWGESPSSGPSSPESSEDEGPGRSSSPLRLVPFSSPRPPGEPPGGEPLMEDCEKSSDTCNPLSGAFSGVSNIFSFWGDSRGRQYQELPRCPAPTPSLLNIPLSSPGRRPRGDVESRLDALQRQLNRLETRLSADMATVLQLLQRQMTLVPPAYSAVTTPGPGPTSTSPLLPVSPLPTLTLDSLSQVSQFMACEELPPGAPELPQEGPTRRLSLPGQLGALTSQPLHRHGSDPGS
row,Structure (SMILES),"hERG current change (%, negative = inhibition) at 10uM [%]"
1,O=C(NC(=S)Nc1ccccc1)c1ccc(Br)o1,13.7
2,CSc1ccc(CNC(=O)c2ccc(NC(=O)C3=CSCCO3)cc2)cc1,28.4
3,COc1nc(OC)nc(N2CCC(C(=O)NCc3cccs3)CC2)n1,-45
4,O=C(CNC(=O)c1sc2ccccc2c1Cl)NC1CC1,3.65
5,CCCc1nc2cc(CC(=O)OC)ccc2o1,25.6
6,CCOC(=O)CSc1nc2ccccc2c(=O)n1C1CCCC1,-14.3
7,CCCN1CCO[C@@H]2c3cc(O)ccc3OC[C@H]21.Cl,12
8,CC(C)NC(=O)CC(=O)N/N=C\c1ccccc1C(=O)O,35.9
9,CC1CCN(c2nc3c(cc2C#N)COC(C)(C)C3)CC1,-4.31
10,COc1ccc(-c2nnc(Nc3nc4c(OC)cccc4s3)o2)cc1,10.5
11,CC(C)C(NC(=O)C1CCCCC1)C(=O)NCc1ccccn1 (stereo not shown),9.17
12,COc1ccc(C(=O)NCCN2CCOCC2)c(OC)c1OC,-5.11
13,Cc1cc(C)nc(NC(=O)Cc2ccc([N+](=O)[O-])cc2)c1,-67.9
14,Cc1ccc2c(CC(=O)O)coc2c1,22.8
15,Cc1ccccc1-n1c(=O)c2ccccc2n2c(=O)[nH]nc12,19.4
16,NC(=O)c1ccc(=O)n(Cc2ccc(Cl)cc2Cl)c1,9.04
17,Cc1c(Cl)cnc(NC(=O)COC(=O)C(NC(=O)c2ccco2)C(C)C)c1Cl (stereo not shown),-7.44
18,Cn1c(C(=O)NCCN2CCN(c3ccccc3F)CC2)cc2c(=O)n(C)c3ccccc3c21,-4.62
19,Nc1ncnc(SCc2c(F)cccc2Cl)n1,12.4
20,O=C(NCCN1CCOCC1)c1cc(Sc2ccc(F)cc2F)nc2ccccc12,-42.8
21,O=C(N/N=C/c1cccc(OC(=O)c2ccccc2Cl)c1)c1cccnc1,-17
22,CCOc1ccc(N/C(=N/c2nc(C)cc(C)n2)NC(=O)CC)cc1,-13.3
23,COc1ccc(CNC(=O)C2CCCN(S(=O)(=O)N3CC(C)CC(C)C3)C2)c(OC)c1 (stereo not shown),-6.97

row,Structure (SMILES),"hERG current change (%, negative = inhibition) at 10uM [%]"
1,CC(C)(C)NC(=O)NC(=O)COC(=O)c1ccco1,-11.8
2,Cc1c(NC(=S)N/N=C/c2cc([N+](=O)[O-])ccc2O)c(=O)n(-c2ccccc2)n1C,10.7
3,O=C1Cc2ccccc2C(c2ccccc2)N1 (stereo not shown),9.81
4,CCC(=O)N1CCc2cc(OC)c(OC)cc2C1COc1ccc(OC)cc1 (stereo not shown),1.62
5,CCN1CCN(S(=O)(=O)c2ccc(OC)c(Br)c2)CC1,6.53
6,COc1ccccc1-n1cc(C(=O)N2CCCC(CO)(Cc3ccccc3C)C2)cn1 (stereo not shown),-3.01
7,O=S(=O)(c1cnccc1N1CCN(/N=C/c2ccccc2)CC1)N1CCCCC1,8.51
8,Cc1ccc(NC(=O)c2ccc(NC(=O)c3ccccc3)cc2)cc1C,6.29
9,OCC1(Cc2cccc(Cl)c2)CCCN(Cc2ccc3cc(F)ccc3n2)C1 (stereo not shown),-23.8
10,CCCOCC(O)CCc1n[nH]c(=S)n1-c1ccccc1 (stereo not shown),33.7
11,COC(=O)CSc1nc2c(c(=O)[nH]c(=O)n2C)n1CCC(C)C,-3.93
12,C=CCn1c(C)c(C(=O)OCC)c2cc(O)c3ccccc3c21,14.5
13,O=C(CCc1nnc(CCC2CCCCC2)o1)NCCc1ccccn1,-27.3
14,O=C(/C=C/c1ccc2c(c1)OCO2)Nc1ccc(Cl)cn1,2.05
15,C=CCn1c(COc2ccccc2)nnc1SCC(=O)Nc1ccc(S(N)(=O)=O)cc1,0.0712
16,O=C(c1cc(-c2ccc(O)cc2)on1)N1CCN(c2ccc(F)cc2)CC1,-23.6
17,CC(C)CNC(=O)N1c2ccccc2Sc2ccccc21,-6.5
18,Cc1cc(C)n2c(=S)[nH]nc2n1,19.6
19,O=C(Nc1cccc([N+](=O)[O-])c1)c1ccn[nH]1,21.4
20,CC(CNC(=O)CN1C(=O)COc2ccc(S(=O)(=O)N3CCCCC3)cc21)c1ccccc1 (stereo not shown),15
21,CS(=O)(=O)c1ccc(-n2c(=O)n(Cc3ccccc3)c(=O)c3[nH]cnc32)cc1,-45.7
22,CCCN1C2CCCC1CC(NC(=O)c1ccc(Br)cc1)C2 (stereo not shown),-66.3
23,COC(=O)/N=C(/Cc1ccc(OC)cc1)c1ccc(OC)cc1,-4.39

row,Structure (SMILES),"hERG current change (%, negative = inhibition) at 10uM [%]"
1,Cc1ccc(NC(=O)CSCc2cc(=O)n3ccsc3n2)c(C)c1,15.5
2,COc1cccc(CC(=O)Nc2ccccc2N2CCCC2)c1,-5.39
3,Cc1ccc(S(=O)(=O)Nc2ccc3ncccc3c2)cc1,-6.36
4,Cc1cc(=O)[nH]c2ccccc12,14.1
5,Cc1ccc2nsnc2c1NC(=O)c1ccc([N+](=O)[O-])cc1,-39.6
6,CCCCC(=O)Nc1cc([N+](=O)[O-])ccc1F,22.5
7,CCS(=O)(=O)N1CCC(C(=O)NCc2cccnc2)CC1,-11.7
8,Cc1cc(N2CCN(S(=O)(=O)c3ccc(Cl)cc3)CC2)c2ccccc2n1,-77.8
9,CC(=O)c1cc2c(cc1NC(=O)C1CC1)OCO2,6.77
10,CCOC(=O)n1c(=O)n(Cc2ccccc2Cl)c2ccccc21,-5.87
11,CCSc1n[nH]c(=O)[nH]c1=O,4.31
12,CC(C)NC(=O)[C@H]1N2C(=O)c3ccccc3C2SC1(C)C (stereo partly shown),16.8
13,CC(C)N(C(=O)CSc1nnc(CN2CCCCCC2=O)n1-c1ccccn1)C(C)C,0.287
14,CN(C)c1ccc(NC(=O)CN2CCN(c3ccc(F)cc3)CC2)cc1,-4.56
15,CCOC(=O)c1sc(Nc2nc3cc4c(cc3s2)OCO4)cc1C,13
16,O=C1C2CCCCN2C(=O)N1CCCCN1CCN(c2cccc(Br)c2)CC1 (stereo not shown),-61.4
17,CC(=O)c1c(N2CCCCC2)nc(=S)n(Cc2ccccc2)c1C,-17.3
18,Cn1c(SCc2ccc([N+](=O)[O-])cc2)nnc1-c1cccnc1,-18
19,CC(=O)c1ncnn1CC(=O)c1ccc(Cl)cc1Cl,10.9
20,O=C(CSc1nc2cc(Cl)ccc2s1)NC(=O)NCc1ccco1,-1.55
21,CCN(c1ccccc1)S(=O)(=O)c1nnc(NC(=O)c2ccco2)s1,4.3
22,COc1ccc(S(=O)(=O)NCC(c2cccnc2)N2CCN(c3ccccc3)CC2)cc1C (stereo not shown),-79.2
23,COc1ccc(CNC(=O)CN(Cc2ccc(Cl)cc2)S(=O)(=O)c2ccccc2)cc1,-12.5

row,Structure (SMILES),"hERG current change (%, negative = inhibition) at 10uM [%]"
1,Cc1cc(C)n(CC(=O)NCc2ccccc2)c(=O)c1C#N,21.6
2,Cc1ccc2c(c1)[C@@H]1CN(C)CC[C@@H]1N2C(=O)Nc1cccc(C(F)(F)F)c1,-38.5
3,CC1CCN(CCNC(=O)c2ccc3c(=O)n(Cc4ccc(Cl)cc4)c(=S)[nH]c3c2)CC1,-15.8
4,Cc1cccc(C(=O)NC(=S)Nc2ccccc2C(F)(F)F)c1,-10.9
5,COCCn1c(SCC(=O)Nc2ccc(NC(C)=O)cc2)nc2c([nH]c3ccccc32)c1=O,18.9
6,Cc1c(C(=O)NCc2ccccn2)sc2nc(-c3ccc(F)cc3)cn12,-10.2
7,COc1ccc(-c2cc(=O)oc3cc(OC(=O)C4CCCCC4)c(Cl)cc23)cc1,11.2
8,COc1ccc(S(=O)(=O)N(C)C)cc1NC(=O)CSc1nnc(-c2cccnc2)o1,26.2
9,CCc1c(C)n([O-])c2c([n+]1=O)CCCCC2,1.54
10,CCOc1ccccc1NC(=O)CCC(=O)Nc1nnc(C2CCCCC2)s1,18.8
11,CS(=O)(=O)c1sc(C(=O)NC(=O)Nc2cccc(C(F)(F)F)c2)c2c1C=CCC2,-11.6
12,CC(C)(C)C(=O)Nc1ccccc1-c1nc2ccccc2[nH]c1=O,13.7
13,CCOc1ccc(OCCC(=O)OCC(=O)NC(C)c2ccccc2)cc1 (stereo not shown),14.9
14,COC(=O)C1=C(CSc2nnnn2C)NC(=O)NC1c1cc(C)ccc1C (stereo not shown),-2.11
15,CCC(C)NC(=O)CSc1nnc(-c2ccc(OC)c(OC)c2)c(-c2ccc(OC)c(OC)c2)n1 (stereo not shown),12.4
16,COc1cc(/C=C(\C#N)c2nc3ccccc3n2C)cc(OC)c1O,-28.3
17,Cc1c(Cl)cccc1Nc1nc(N)nc(CSc2nc3ccccc3s2)n1,0.584
18,Cc1ccc(/C=C/c2nc3ccccc3c(=O)n2CCc2ccccc2)cc1,13.1
19,Cc1nc(SCc2ccccc2)c2oc3ccccc3c2n1,12.2
20,COCCCNC(=O)CCn1c(=O)c2ccccc2n(CC(=O)Nc2ccc(C)cc2C)c1=O,17
21,COc1ccc(N2CCN(CCNC(=O)CCN3C(=O)COc4ccccc43)CC2)cc1,-47
22,CCN(CC)Cc1csc2ccc(Br)cc12.Cl,-41
